Test results reported in PubChem BioAssay AID720542 (National Center for Advancing Translational Sciences (NCATS), 2013).
Among all 360,000 compounds or so, about 740 (0.21%) were called active. The shares of active, inactive and inconclusive entries below differ from those in the screen. The call rests on the fitted dose curve; in most records, active means well fitted inhibition curve with a large enough effect; inconclusive means small, poorly fitted or top-dose-only effect; inactive means no such curve, though single readings can be large or run the other way. Potencies of inconclusive entries are left out as doubtful fits.

System: Plasmodium falciparum AMA1 (3D7) - RON2 peptide interaction
Assay: qHTS for Inhibitors of AMA1-RON; Towards Development of Antimalarial Drug Lead: Primary Screen; further: nearly all actives have a fitted effect of over 45% in size;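 on activity change, negative = inhibition: 0% = vehicle wells and -100% = peptide control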
Conditions: AlphaScreen AMA1-biotinylated RON2 peptide binding; activity change, negative = inhibition: at 58.2 µM (top of the series) unless noted
In short: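 AMA1 (3D7) with his tag at 25 nM final met compounds first, then biotinylated RON2 peptide at 25 nM; detection used donor plus acceptor beads, 10 µg/mL apiece, read by AlphaScreen after 30 min at room temperature.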
Potency means the concentration at half of the fitted maximal effect; tags describe the fitted curve by direction and shape.

Row | Structure (SMILES) | Potency | activity change, negative = inhibition
1 | c1ccc2cc(OCCCn3ccnc3)ccc2c1 | inconclusive [inhibitor, single point] | 
2 | O=[N+]([O-])c1cncc([N+](=O)[O-])c1Nc1ccccc1Cl | inconclusive [inhibitor, single point] | 
3 | Cc1cccc(C(=O)Nc2ccc(C(=O)/C=C/c3cccnc3)cc2)c1 |  | inactive: -7.01%
4 | Cc1ccc(SC2=C(Sc3ccc(C)cc3)C(=O)c3ccccc3C2=O)cc1 | inconclusive [inhibitor, full curve] | 
5 | COc1ccccc1N1CCN(C(=O)c2ccc3c(c2)CCN3S(=O)(=O)c2ccccc2)CC1 |  | inactive: -0.876%
6 | CN(C)c1cc(NC(=O)CNC(C)(C)CC(C)(C)C)c2ccccc2n1 | inconclusive [inhibitor, single point] | 
7 | CN(C)c1ccc(-c2csc(C(C)(O)c3cccc(F)c3)n2)cc1 (centres undefined) | active: 15.8 µM | 
8 | CC1CCCC(C)N1C(=O)COC(=O)CNC(=O)c1ccccc1 (centres undefined) |  | inactive: -3.6%
9 | O=C(COC(=O)c1c2c(nc3ccccc13)CCCC2)c1ccc(Br)s1 | inconclusive [inhibitor, full curve, poor fit] | 
10 | CCOc1cc(CNc2ccc3c(c2)OCCO3)cc(Br)c1OC | inconclusive [inhibitor, single point] | 
11 | CSc1ccc(C(=O)C2CCCN(Cc3cnc(SC)nc3)C2)cc1 (centres undefined) | inconclusive [inhibitor, partial curve, poor fit] | 
12 | CC(=O)CCc1c(C)[nH]c2ccccc2c1=O | inconclusive [inhibitor, partial curve] | 
13 | O=C(COC(=O)c1cnccn1)c1ccc(Cl)c([N+](=O)[O-])c1 |  | inactive: 5.46%
14 | CCOC(=O)C1=C(N)n2c(s/c(=C\c3ccco3)c2=O)=C(C(=O)OC(C)C)C1c1ccco1 (centres undefined) | inconclusive [inhibitor, partial curve] | 
15 | c1cc2nc(C34CC5CC(CC(C5)C3)C4)[nH]c2cn1 | inconclusive [inhibitor, partial curve] | 
16 | Cc1ccc(Nc2ccc(S(=O)(=O)N3CCOCC3)cc2[N+](=O)[O-])c(C)c1 | inconclusive [inhibitor, single point] | 
17 | Cn1c(O)c(C2=NNC(c3ccc(Cl)cc3)C2)c(=O)n(C)c1=O (centres undefined) |  | inactive: 84.3%
18 | COc1ccccc1C1CCN(c2ccc([N+](=O)[O-])c(OC)c2)CC1 | inconclusive [inhibitor, partial curve] | 
19 | Cc1ccc(N2CCN(C(=S)c3ccc(-c4ccccc4[N+](=O)[O-])o3)CC2)cc1 | inconclusive [inhibitor, partial curve] | 
